Source: paper PMC8739753 (ACS catalysis, 2021)

Assays:
P450 TamI L244A_L295V = P450 TamI L244A_L295V (Streptomyces sp. 307-9, UniProt D3Y1J3, L244A/L295V); assay: Michaelis–Menten kinetics, TamI L244A_L295V; type: biochemical; settings: TamI L244A_L295V vs TamI WT; compound as substrate
TamI L101A_L295I [1] = target: T1, TamI L101A_L295I (Streptomyces sp. 307-9, UniProt D3Y1J3, L101A/L295I); settings: compound as substrate
TamI L101A_L295I [2] = target: T1, TamI L101A_L295I; assay: biochemical
P450 TamI L101A_L295I = settings: TamI L101A_L295I vs TamI WT; step 4 on substrate
TamI P450 L244A_L295V [3] = target: T2, TamI P450 L244A_L295V (Streptomyces sp. 307-9, UniProt D3Y1J3, L244A/L295V); settings: compound as substrate
TamI P450 L244A_L295V [4] = target: T2, TamI P450 L244A_L295V; assay: biochemical
TamI WT and mutants = settings: range over TamI WT, L295V, and L101A_L295I
TamI H102V = TamI H102V (Streptomyces sp. 307-9, UniProt D3Y1J3, H102V); assay: biochemical

CC(C=CC(O)=C1C(=O)CNC1=O)=CC(C)C1OC2(C)OC(C(O)C=C2C)C1C (stereo not shown) [compound 2, tirandamycin E]
increase in catalytic efficiency compared to the WT enzyme (P450 TamI L244A_L295V): 36 fold
TTN (mol substrate consumed/mol P450) (TamI L101A_L295I [1]): 324
Kd (TamI L101A_L295I [2]): 4.75 µM

CC(/C=C/C(O)=C1/C(=O)CNC1=O)=C\[C@@H](C)[C@H]1O[C@@]2(C)O[C@H](C(=O)[C@@H]3O[C@@]32C)[C@@H]1C [compound 4, Tirandamycin A]
increase in catalytic efficiency compared to the WT enzyme (P450 TamI L244A_L295V): 23 fold
increase in efficiency compared to TamI WT (P450 TamI L101A_L295I): eightfold
TTN (mol substrate consumed/mol P450) (TamI P450 L244A_L295V [3]): 167
Kd (TamI P450 L244A_L295V [4]): 7.09 µM

CC1=CC[C@H]2O[C@]1(C)O[C@H]([C@H](C)/C=C(C)/C=C/C(O)=C1/C(=O)CNC1=O)[C@H]2C [compound 1, tirandamycin C]
TTN (mol substrate consumed/mol P450) (TamI WT and mutants): 368–369
Kd (TamI L101A_L295I [2]): 0.09 µM
Kd (TamI H102V): 10.3 µM
